Test results as given in the supplement of paper PMC10126150.
Values marked as one replicate rest on one cluster of the flow cell; about a third of the high ones do not repeat.

tested on: ATP; test: switch fluorescence ratio, 500 uM ATP over buffer (Cy3 cluster intensity, sum of 5 cycles each) (fold (ratio)); higher = stronger signal-on switching upon ATP binding; sequences stand for … in TCGTCGGCAGCGTCAGATGTGTATAAGAGACAGTTTTTTTTTTTTTTTTTTTTTTTTT…TC; conditions: aptamer strand: ATP DNA aptamer (quencher-CACCTGGGGGAGTATTGCGGAGGAAGG + anchor), 100 nM annealed; ATP concentration: 500 uM; one replicate
Outline: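 Between each of five buffer/ATP cycles, the flow-cell was stripped with NaOH and re-annealed. Each cycle imaged Cy3-labelled switching-strand clusters, annealed to 100 nM quencher-labelled ATP aptamer on a modified Illumina MiSeq flow-cell, first in selection buffer and then after 15 min with 500 uM ATP at 22 °C. The fluorescence ratio is summed target-cycle over summed buffer-cycle Cy3 intensity per cluster, averaged per switch-domain sequence, with clusters outside 100-1000 RFU excluded.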
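Also: ATP exposure 15 min at 22 °C before imaging.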

Sequence	switch fluorescence ratio
TGGAGGTGAG	0.999
TGGAGTGCTC	1.04
TGGATAAGCC	0.963
TGGATACAGG	1.04
TGGATGAGAG	1
TGGATTCGGT	0.971
TGGCAACATT	0.994
TGGCACGTCT	0.994
TGGCAGATGT	1.1
TGGCAGCCGC	0.978
TGGCAGTAGG	0.954
TGGCATTTGA	1
TGGCCAATCT	1.04
TGGCCCCACG	1.06
TGGCCCGGCG	1.07
TGGCCTATCG	0.998
TGGCCTTATA	0.974
TGGCGAGCTT	1.01
TGGCGCAGAT	1.05
TGGCGCGCG	0.906
TGGCGCGGTA	1.07
TGGCGGAAAC	1.12
TGGCGGAGGG	0.978
TGGCGGCTCG	0.991
TGGCGGGGAA	1.04
TGGCGTTAGA	1.04

Sequence	switch fluorescence ratio
TGGCTAACTT	0.998
TGGCTAATGG	1.03
TGGCTAGGTA	1.03
TGGCTATGAG	1
TGGCTCACGT	0.956
TGGCTCAGTT	1.02
TGGCTCCCCA	1.07
TGGCTCGGTG	1.03
TGGCTCTACG	1.05
TGGCTGCAG	0.977
TGGCTGTACT	1.02
TGGCTTCAGG	0.991
TGGCTTCCG	1.04
TGGCTTGGAA	0.979
TGGCTTGGGA	1.01
TGGCTTTGTC	0.944
TGGGAAAAGT	0.962
TGGGAAACCA	1.01
TGGGAACATG	1.01
TGGGAATAGC	2.26
TGGGACCAAT	0.965
TGGGACCCA	0.956
TGGGACCGTG	0.929
TGGGACCTAT	0.992
TGGGACGAT	0.995
TGGGACTGAA	1.02

Sequence	switch fluorescence ratio
TGGGAGCAAA	1.01
TGGGAGCCCT	0.979
TGGGAGTGTG	1.01
TGGGAGTTCT	1.02
TGGGATTCGT	0.93
TGGGCACAGT	1
TGGGCACCAC	0.979
TGGGCACCGT	1
TGGGCCGG	1.15
TGGGCCTAGT	0.993
TGGGCGAAG	1.05
TGGGCGCGCG	1
TGGGCGGTAG	1
TGGGCGTACC	1.09
TGGGGAACTC	1.05
TGGGGAGATG	0.991
TGGGGCCCAG	0.973
TGGGGTGTGC	0.951
TGGGTATGCC	0.926
TGGGTATTTA	1.08
TGGGTCAGCG	1.04
TGGGTCAGGG	1.03
TGGGTGGGT	1.04
TGGGTTTCA	1.01
TGGTAAAAGC	1.01
TGGTAAATGC	1.06

Sequence	switch fluorescence ratio
TGGTAACATT	1.04
TGGTAAGAGT	1.02
TGGTAATGAT	1.02
TGGTAATT	0.996
TGGTACCTCT	0.953
TGGTACGAGG	0.985
TGGTATCAGA	0.98
TGGTATTAGT	1
TGGTCAAATA	1.02
TGGTCAATCG	1
TGGTCATGTT	0.986
TGGTCCGAGA	1.02
TGGTCCGGAA	1.32
TGGTCGAAC	0.996
TGGTCGCATA	1
TGGTCGCCTG	0.978
TGGTCGCGCT	1.01
TGGTCTAACT	1.08
TGGTCTTGAG	0.95
TGGTGAATTC	1.02
TGGTGAGTAA	0.96
TGGTGATAGG	1.03
TGGTGATGAT	0.99
TGGTGGAATG	0.991
TGGTGGAGAA	0.928
TGGTGGAGAG	0.983

Sequence	switch fluorescence ratio
TGGTGGCAAG	0.956
TGGTGGGGT	1
TGGTGGTCCG	0.988
TGGTGTCATC	0.987
TGGTGTCGAA	0.982
TGGTGTTCGT	0.977
TGGTGTTGA	0.985
TGGTGTTTAT	1.01
TGGTTAAGAA	1.02
TGGTTATCGC	1.02
TGGTTATGTG	0.989
TGGTTCATCC	1.26
TGGTTCGTG	0.985
TGGTTCTCAC	1.02
TGGTTGGCGC	0.955
TGGTTGTCAT	1.01
TGGTTGTCTG	0.95
TGGTTTCACC	0.981
TGGTTTCGTT	0.943
TGGTTTTCCT	1.02
TGTAACGCGA	1.28
TGTAACGGTA	1
TGTAACTTGG	0.99
TGTAAGCATC	1.03
TGTAATTAAG	0.995
TGTACCGCAG	1.23

Sequence	switch fluorescence ratio
TGTACTAAGG	1.07
TGTAGCTTAG	1.06
TGTAGGGCTT	0.996
TGTAGTAACT	1.01
TGTATAAAGC	0.947
TGTATAAGGC	1.01
TGTATATGAT	0.988
TGTATCTTTG	1
TGTATGATAC	1.07
TGTCAGAGAC	1.04
TGTCAGGGCT	1.01
TGTCATAATT	0.975
TGTCATG	0.992
TGTCATGGT	1
TGTCATTTTT	1
TGTCCACAGC	1.06
TGTCCGCTGG	1.29
TGTCCGGTGC	1.13
TGTCCTAGGC	0.918
TGTCCTTTCT	1.76
TGTCGACAGG	0.95
TGTCGTAATG	0.979
TGTCGTCCTA	0.991
TGTCTACTCG	1.01
TGTCTGAGTT	0.955
TGTCTTCGCA	1.05

Sequence	switch fluorescence ratio
TGTCTTGCGT	0.974
TGTGAAAAGC	0.99
TGTGAAATAC	1.44
TGTGAAGT	1.01
TGTGACAGGG	1.01
TGTGACTCGC	1.04
TGTGAGAAAA	1.04
TGTGAGCGAC	1.05
TGTGAGTCGT	0.948
TGTGATGCCT	0.922
TGTGATGTAA	0.954
TGTGCAAGAA	0.991
TGTGCCCGGT	0.989
TGTGCCGGGT	0.96
TGTGCCTGGT	0.975
TGTGCGATTC	1.32
TGTGCTAGCC	1.04
TGTGGACATG	1.07
TGTGGAGAGT	1.18
TGTGGAGCT	0.963
TGTGGAGTTT	0.962
TGTGGATTCC	1.02
TGTGGCATTG	1.02
TGTGGCGGCT	0.992
TGTGGGAAAG	0.976
TGTGGGACAC	1.03

Sequence	switch fluorescence ratio
TGTGGGCACC	0.934
TGTGGGCC	1.03
TGTGGGCCCG	1.06
TGTGGGCCGA	0.982
TGTGGGGTCA	0.995
TGTGGGTCAG	1
TGTGGTAGGG	0.982
TGTGGTGTTA	0.956
TGTGTCACC	1
TGTGTGAAG	0.99
TGTGTGATGA	1.07
TGTGTGCCCA	0.966
TGTGTTACTA	0.989
TGTGTTCGCC	1.03
TGTTAACCTC	1.02
TGTTACAACA	1.05
TGTTACATCC	1.06
TGTTACCTCC	1.3
TGTTAGCCTC	0.984
